Results reported in the supplement of paper PMC3334620.
In all, about 33,000 sequences were measured (“E-score (-0.5 to 0.5)”: median about -0.016, highest 2% from about 0.31 on). This is one part of the list.

What follows are sequences tested against Cst6 (UniProt P40535) (assay: PBM E-score (8-mer binding enrichment) (E-score (-0.5 to 0.5)); higher = stronger / more preferred TF binding; most listed sequences are background and not binding sites). Details: protein concentration: 200 nM; construct: GST-DNA-binding domain.
In short: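 Using PURExpress in vitro transcription/translation, GST-tagged yeast transcription factors were made in full-length or DNA-binding-domain form. These were applied at about 100-200 nM to double-stranded universal all-10-mer Agilent arrays, and bound protein was detected with fluorescent anti-GST. Scans were normalised with masliner before the Universal PBM Analysis Suite assigned E-scores to ungapped eight-base words pooled with their reverse complements.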

Sequence	PBM E-score
CTGACTTA	0.0619
ACTTCTCT	-0.0203
AATTGCCC	-0.055
AGCAGGCT	-0.279
CCAGAACG	0.0166
ACCGGTCA	-0.0152
ATCGCCCG	-0.195
GTCAGGCA	-0.0378
ACAAAGAG	-0.179
CAGTCGGC	-0.116
ATCTACGG	0.0766
CGGATACG	0.0365
CGCGGCAA	0.134
CCTCGTAG	0.0429
GTACTTGA	-0.168
ACTACATG	0.151
ATTTCATA	0.192
AGTTCGTG	-0.0346
CGTTGCTA	-0.00267
CTTAACGA	0.0413
CGTGTTGA	0.0872
AGCTATCG	-0.106
CCAGCCAA	-0.0768
AGCTCACT	0.0289
AGAACACA	0.0117

Sequence	PBM E-score
AGGTTAGC	-0.207
CTATGTGA	0.0939
CGAACATA	0.161
CAGTCAAG	-0.0974
GGATCCCA	-0.0683
GCACCTAC	-0.171
TAGACCAA	-0.0245
AGACATAG	-0.00262
TCAATGAA	0.0774
ATTGCGCC	0.0746
AGCGGCTA	0.131
GGGGGGAC	-0.445
CCGCTGAG	-0.209
ACTTGGAC	-0.0298
ACCTTCTC	-0.161
ACCTGCCG	-0.111
CAGTGATG	0.247
AAAAAATC	0.23
AAGGTCGG	-0.139
AGCTTCTA	-0.186
AATAAGTG	0.0718
ACACATCT	0.024
CCCACTAA	-0.119
CTATTACC	-0.111
ACGGGTAC	-0.16

Sequence	PBM E-score
AAGTAGAG	0.018
GGGCTGAC	-0.0231
TAAAATGA	0.268
CCAGTGGC	-0.175
CGTTCGAC	-0.0785
ACCGACTC	-0.2
AGAAATGA	0.231
TACCAGAA	0.0986
ATGACCCC	-0.177
ATCGTCTC	-0.0844
ACTACTAC	-0.0814
TGCATGCA	0.00464
AGCTCGTA	-0.098
GCTTTCCC	-0.145
CTTGTACC	-0.00851
CGGGTGTA	-0.192
TACAGCGA	-0.116
AAATGGCT	0.00259
ATTCAATG	0.134
AAGGTTAC	0.072
GCCCGGCA	-0.251
CTCAACGA	-0.065
ATGACGCA	0.485
ATGGGAGG	-0.215
CGTGGCAC	0.104

Sequence	PBM E-score
CAGAGTCC	-0.0312
CCCAGCTC	-0.327
GAATCCTC	-0.238
CCCTAGCC	-0.175
CTTTAGGC	-0.111
ACGTACAA	0.168
AGCGGTCG	-0.219
AAACTTGC	0.174
ATGTTCTA	-0.0863
ACCTCCCA	-0.36
ATACGTCA	0.494
ATCGGCCA	-0.132
ACCAGCCA	-0.177
CACGTACC	-0.0025
GACGACGC	0.074
CGTGTCAC	0.2
CCTTATTA	0.19
AAGGCATT	0.199
AAAGGTGT	-0.167
CAGGACTC	-0.158
CCCCAGAG	-0.311
ACCCACTC	-0.194
AATTGACT	0.0154
CAAGTTTC	0.0749
ACCATGCT	-0.0124

Sequence	PBM E-score
CTAGCTGC	-0.178
GACCAATA	0.0449
AGTGCCAT	-0.0464
GCACTAGC	-0.193
CCGCCCTC	-0.198
GGCTGCTA	-0.113
CCGTCGGA	-0.114
AGAGCAGC	-0.186
TCCATTCA	0.0114
CAACTCGG	-0.16
GACTGACC	-0.198
ACCCACAA	0.105
ATTCAAAC	0.141
ACGGGAGA	-0.181
ACAGGTTA	-0.0664
CCCAACCA	-0.0722
AGTAGTCG	-0.0308
TGCGTAAA	0.218
TATGCTCA	0.0949
ATGTCCAA	0.0591
CCTTGCAA	-0.186
GCTGTGAA	-0.0683
ATAGTTGG	0.00697
AGTCCGAA	-0.0265
CCCAAGGG	-0.385

Sequence	PBM E-score
ACCGGGAC	-0.184
GTGACGAA	0.454
AATAAGAG	0.055
AGGAGTAC	-0.228
AATTTTAT	0.346
CACCATTC	0.0213
ACCAATGA	0.172
GCCGAAGC	-0.167
AGGTGCCG	0.137
CCGTAGAG	-0.107
CGCTAAAC	0.089
CAGTAAGC	-0.0334
ATGCCCAG	-0.177
CGGGCATC	-0.276
GATAATAA	0.098
CGGAAGTA	-0.102
CCCCACCG	-0.208
GATATTGC	-0.0125
AGCCCCAG	-0.282
AATGAGCA	0.126
GCGAAGAC	-0.202
CGTTCTTC	0.151
GAAAACCC	-0.08
GTTCACCA	-0.0696
AATTCATC	-0.0426

Sequence	PBM E-score
CAACTCCG	-0.142
AGCTAAGC	-0.156
ATCCGCAA	-0.0389
AACGTAGA	0.118
CTCTTGCC	-0.157
AACACTCC	-0.151
AAAGCTCC	-0.132
AACGGGTG	-0.104
CCCCGGCG	-0.254
ACCCGCTG	-0.177
CTCCGACC	-0.341
GAATGAAA	0.225
CTTATAAG	-0.0263
ACTAGATG	0.0271
CGGTGTCA	-0.0632
TCCGACAA	0.0665
CCTGCCAC	-0.0293
CTTTTCGC	0.0964
TCAAAACA	0.211
AATTTGTC	0.103
ATGCTCTA	-0.0844
TATAAGAA	0.125
